According to PubChem BioAssay AID588342 (National Center for Advancing Translational Sciences (NCATS), 2011):
Hit rate of the full screen: of about 360,000 compounds, about 25,000 (6.9%) were called active. This list was built around the results that the source calls inconclusive (neither active nor inactive); the mix of calls is not that of the screen. The call rests on the fitted dose curve; in most records, active means well fitted inhibition curve with a large enough effect; inconclusive means small, poorly fitted or top-dose-only effect; inactive means flat fitted curve, though single readings scatter. A potency beside an inconclusive call is a rough fit, not a confirmed value.

target: Luciferin 4-monooxygenase (Photinus pyralis) (UniProt P08659); assay: qHTS profiling assay for firefly luciferase inhibitor/activator using purifed enzyme and Km concentrations of substrates (counterscreen for miR-21 project); conditions: purified FLuc, luminescence inhibition; series mostly up to 57.5 µM; activity change, negative = inhibition: at the top concentration; further: nearly all actives have a fitted effect of over 55% in size;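 on activity change, negative = inhibition: plate controls were vehicle for no effect and reference inhibitor for full effect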
How it was run: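 Biochemical qHTS of compounds, final roughly 60 µM downward over six points, against 10 nM purified firefly luciferase using Km concentrations of substrates (10 uM D-luciferin, 10 uM ATP) in Tris acetate pH 7.5 buffer; luminescence output.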
Potency means the concentration at half of the fitted maximal effect; tags describe the fitted curve by direction and shape.

Chain of UniProt P08659 (P08659 whole entry, looked up): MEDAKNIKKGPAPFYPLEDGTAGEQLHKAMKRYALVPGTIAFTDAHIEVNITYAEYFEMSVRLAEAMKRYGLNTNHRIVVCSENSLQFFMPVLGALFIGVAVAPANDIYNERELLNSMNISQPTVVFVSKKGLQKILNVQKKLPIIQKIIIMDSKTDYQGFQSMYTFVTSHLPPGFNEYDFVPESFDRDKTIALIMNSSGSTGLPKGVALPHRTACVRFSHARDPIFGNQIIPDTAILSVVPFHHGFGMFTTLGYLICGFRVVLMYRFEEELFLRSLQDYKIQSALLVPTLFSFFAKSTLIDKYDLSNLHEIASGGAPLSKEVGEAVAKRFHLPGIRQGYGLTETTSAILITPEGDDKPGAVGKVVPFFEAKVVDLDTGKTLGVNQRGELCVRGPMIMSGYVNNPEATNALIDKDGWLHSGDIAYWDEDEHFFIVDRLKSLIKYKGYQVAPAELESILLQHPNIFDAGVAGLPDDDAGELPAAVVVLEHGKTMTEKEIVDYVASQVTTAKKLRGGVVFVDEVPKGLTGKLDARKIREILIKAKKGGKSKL

Structure (SMILES)	Potency	activity change, negative = inhibition
Cc1ccc2nc(-c3cc(NC(=O)/C=C/c4ccccc4)ccc3Cl)oc2c1	inconclusive: 6.75 µM [inhibitor, partial curve]	
CCOc1cc(/C=N/O)ccc1OCc1ccccc1F	inconclusive: 37.9 µM [inhibitor, partial curve, poor fit]	
CCC(=O)Nc1ccc(NC(=O)c2oc3ccccc3c2C)cc1	active: 5.36 µM	
O=C(COc1ccccc1[N+](=O)[O-])Nc1cccc(S(=O)(=O)NC2=NCCCCC2)c1	inconclusive: 15.1 µM [inhibitor, partial curve]	
CCCC1CCC(c2nc(-c3cccnc3)no2)CC1 (configuration not stated)	active: 23.9 µM	
Oc1ccccc1CNc1ccc(OC(F)(F)F)cc1	inconclusive: 26.9 µM [inhibitor, single point]	
O=C(c1cccc(Cl)c1)N1CCN(CCc2ccncc2)CC1		inactive: 0.749%
COc1ccc(C(=O)Nc2ccc3nc(N4CCC(C)CC4)cc(C)c3c2)cc1	inconclusive: 15.1 µM [inhibitor, partial curve, poor fit]	
COc1ccc(C(=O)Nc2cc(C)nn2-c2nc3ccccc3[nH]2)c(OC)c1		inactive: -3.05%
O=C(Nc1ccc(Cl)cn1)C1COc2ccccc2O1 (configuration not stated)	inconclusive: 21.3 µM [inhibitor, single point]	
OCc1nnc2c3ccccc3c(-c3ccccc3)nn12		inactive: 1.1%
CCOc1ccc(NC(=O)c2nn(C)c3c2CS(=O)(=O)c2ccccc2-3)cc1	inconclusive: 9.53 µM [inhibitor, partial curve]	
N#Cc1c(-c2ccc3c(c2)OCO3)csc1N	inconclusive: 21.3 µM [inhibitor, single point]	
O=C(OCc1ccc(Br)cc1)c1cccnc1Cl	inconclusive: 23.9 µM [inhibitor, single point]	
Cc1ccc(-c2nnc(SCc3nc(N)nc(Nc4ccccc4C)n3)n2N)cc1	inconclusive: 19 µM [inhibitor, single point]	
CCOC(=O)c1c(NC(=O)COc2cc(C)ccc2C(C)C)sc(C)c1C	inconclusive: 10.7 µM [inhibitor, partial curve, poor fit]	
CC(=O)Nc1ccc2c(c1)C(=O)c1ccccc1C2=O	active: 4.78 µM	
Cc1ccc(NC(=O)COC(=O)c2cc(C)nc3ccccc23)c([N+](=O)[O-])c1		inactive: -0.167%
COc1ccc2nc(NC(=O)CCc3cc(OC)c(OC)c(OC)c3)sc2c1		inactive: 1.74%
O=C(CCN1C(=O)/C(=C/c2cccs2)SC1=S)Nc1cccc(O)c1	inconclusive: 19 µM [inhibitor, partial curve, poor fit]	
COc1ccc2c(C(=O)CN3CCSCC3)c[nH]c2c1	inconclusive: 23.9 µM [inhibitor, single point]	
CCc1c(C)c2ccc(OCC(=O)N(C)C)c(C)c2oc1=O	inconclusive: 19 µM [inhibitor, partial curve, poor fit]	
CN(Cc1ccccc1Cl)C(=O)c1cc2ccccc2o1	inconclusive: 23.9 µM [inhibitor, single point]	
CN(C)c1cccc2c1c(NC(=O)c1ccc(Cl)cc1)nn2C		inactive: 0.892%

Structure (SMILES)	Potency	activity change, negative = inhibition
Cc1ccccc1Cn1nnc(C(=O)Nc2ccc3c(c2)OCCO3)c1N	active: 3.01 µM	
CCC(CC)c1nnc(NC(=O)c2ccc3c(c2)OCO3)s1	inconclusive: 21.3 µM [inhibitor, single point]	
O=C(NC1CC1)c1cccc(Oc2ccccc2)c1	inconclusive: 21.3 µM [inhibitor, single point]	
O=C(CCc1nc2sc3c(c2c(=O)[nH]1)CCCC3)Nc1ccccc1Cl		inactive: 3.17%
O=C(Nc1ccc(Cl)cc1)N1CCC(c2nc(-c3ccc(F)cc3)no2)CC1	inconclusive: 30.1 µM [inhibitor, single point]	
COc1ccc(-c2cn3c(C)c(C(=O)Nc4cccc(C)n4)sc3n2)cc1	active: 12 µM	
COC(=O)C1CCCCN1C(=O)CCc1nnc(CCc2c[nH]c3ccccc23)o1 (configuration not stated)		inactive: 1.77%
CC1CN(C(=O)COc2ccc3c(-c4ccccc4)cc(=O)oc3c2)CC(C)O1 (configuration not stated)	inconclusive: 21.3 µM [inhibitor, partial curve, poor fit]	
COc1ccc(-c2cc(C(=O)NNC(=S)NC(=O)c3c(-c4ccccc4)noc3C)[nH]n2)cc1	active: 9.53 µM	
CCOC(=O)CCNC(=O)Nc1ccc2nc(C)n(Cc3ccc(Cl)cc3)c(=O)c2c1		inactive: 0.865%
CCCCCOc1c(Cl)cc(C(=O)N(Cc2ccc(C)o2)C2CCS(=O)(=O)C2)cc1Cl (configuration not stated)		inactive: -6.73%
Cc1ccc(CN2C(=O)N/C(=C\c3cccn3-c3cccc(C(=O)O)c3)C2=O)cc1	inconclusive: 37.9 µM [inhibitor, partial curve, poor fit]	
O=C(NNC(=O)c1cc(-c2ccc(Cl)cc2Cl)nc2ccccc12)Nc1ccccc1	active: 6.75 µM	
CCN1C(=O)/C(=C2\SC(N3CCCCC3)=NC2=O)c2ccccc21	active: 3.38 µM	
CCCCCCN1C(=O)C(O)=C(C(C)=O)C1c1ccccc1[N+](=O)[O-] (configuration not stated)	inconclusive: 37.9 µM [inhibitor, partial curve, poor fit]	
c1coc(CNc2nc(-c3ccncc3)cs2)c1	inconclusive: 23.9 µM [inhibitor, partial curve]	
COc1ccccc1C(=O)Oc1ccc2ccc(=O)oc2c1	inconclusive: 30.1 µM [inhibitor, single point]	
Brc1ccc(CSc2nnc(-c3ccco3)o2)cc1	inconclusive: 23.9 µM [inhibitor, single point]	
CC(=O)Nc1ccc2nc(-c3cccn3C)[nH]c2c1	inconclusive: 26.9 µM [inhibitor, single point]	
CCn1c(NC(=S)Nc2ccccc2)nc2ccccc21	active: 3.38 µM	
CCCCN(CC)CCCNC(=O)c1nn(C)c2c1CS(=O)(=O)c1ccccc1-2	inconclusive: 15.1 µM [inhibitor, partial curve]	
CCc1c(C)sc(NC(=O)c2cc(-c3cccc(Cl)c3)on2)c1C#N		inactive: -19.8%
COc1ccc(NC(=O)Nc2ccccc2F)cc1Cl	inconclusive: 2.13 µM [inhibitor, full curve, poor fit]	
